# In the antibiotic and cytotoxicity screens of Wong et al. (2023):
# This is one part of the list.
# Test system: HepG2
# Assay: cytotoxicity call (relative viability < 0.9)
# Conditions: 10 µM
row,Compound,cytotoxicity call
1,Nc1ccncc1N,inactive
2,C[C@@H]1CN([C@H](C)CO)C(=O)c2c(c3ccccc3n2C)-c2ccccc2CO[C@@H]1CN(C)C(=O)NC1CCCCC1,inactive
3,C[C@H]1CN([C@@H](C)CO)C(=O)c2cc(NC(=O)CCN3CCOCC3)ccc2O[C@H]1CN(C)Cc1ccccc1,inactive
4,C[C@@H]1CN([C@H](C)CO)C(=O)Cc2cc(NC(=O)Cc3ccccc3)ccc2O[C@H]1CN(C)S(=O)(=O)c1cn(C)cn1,inactive
5,Brc1c(NC2=NCCN2)ccc2nccnc12,inactive
6,CC(C)(C)C(=O)CC1(O)CCCCC1,inactive
7,O=C(O)c1cccc(-c2ccco2)c1,inactive
8,CCCN(C)C[C@@H]1OCCCC[C@@H](C)Oc2ccc(NC(=O)Cc3ccccc3)cc2C(=O)N([C@H](C)CO)C[C@@H]1C,inactive
9,C[C@H](CO)N1C[C@H](C)[C@H](CN(C)S(=O)(=O)c2cccc(C#N)c2)OCc2cnnn2CCCC1=O,inactive
10,COc1ccc(NC(=O)N(C)C[C@@H]2Oc3ccc(NS(=O)(=O)c4cn(C)cn4)cc3CC(=O)N([C@@H](C)CO)C[C@H]2C)cc1,inactive
11,CC(C)CC#Cc1ccc2c(c1)O[C@@H](CN(C)C(=O)c1cccnc1)[C@@H](C)CN([C@@H](C)CO)S2(=O)=O,inactive

# Test system: S. aureus RN4220
# Assay: growth inhibition call (relative growth <= 0.2)
# Conditions: 50 µM
row,Compound,growth inhibition call
1,COc1ccc(S(=O)(=O)N(C)C[C@@H]2OCCCC[C@@H](C)Oc3ccc(NC(=O)c4ccccc4)cc3C(=O)N([C@@H](C)CO)C[C@@H]2C)cc1,inactive
2,C[C@H](CO)N1C[C@H](C)[C@H](CN(C)Cc2ccc(C(F)(F)F)cc2)Oc2ccc(NC(=O)Cc3cn(C)c4ccccc34)cc2CC1=O,inactive
3,CC(C)NC(=O)Nc1ccc2c(c1)C(=O)N([C@H](C)CO)C[C@H](C)[C@H](CN(C)CC1CCCCC1)OCCCC[C@H](C)O2,inactive
4,C[C@@H]1CN([C@@H](C)CO)C(=O)c2cccc(NC(=O)NC3CCCCC3)c2O[C@@H]1CN(C)C(=O)Nc1cccc2ccccc12,inactive
5,CCCNCC(O)COc1ccccc1C(=O)CCc1ccccc1.Cl (stereo not given),inactive
6,COc1cccc(NC(=O)N[C@@H]2C=C[C@@H](CC(=O)N3CCOCC3)O[C@H]2CO)c1,inactive
7,CCS(=O)(=O)Nc1ccc2c(c1)C(=O)N(C)C[C@@H](OC)[C@@H](C)CN(Cc1ccccn1)[C@H](C)CO2,inactive
8,Cc1noc(C)c1S(=O)(=O)Nc1ccc2c(c1)C(=O)N([C@@H](C)CO)C[C@@H](C)[C@H](CN(C)S(C)(=O)=O)O2,inactive
9,COc1ccc(CN(C)C[C@@H]2OCCCC[C@H](C)Oc3ccc(NS(=O)(=O)c4ccc(Cl)cc4)cc3C(=O)N([C@H](C)CO)C[C@@H]2C)cc1,inactive
10,O=C1O[C@@H](c2ccccc2)[C@@H](c2ccccc2)N2[C@@H](c3ccccc3OCCO)[C@]3(C(=O)Nc4ccc(C#CC5(O)CCCCCC5)cc43)[C@@H](C(=O)N3CCCCCCC3)[C@H]12,inactive
11,C[C@@H]1CN([C@H](C)CO)S(=O)(=O)c2ccc(C#CCN(C)C)cc2O[C@H]1CN(C)Cc1ccccc1F,inactive
12,C[C@@H]1CCCCO[C@H](CN(C)Cc2ccc(C(=O)O)cc2)[C@@H](C)CN([C@@H](C)CO)C(=O)c2cc(NC(=O)Nc3ccc4c(c3)OCO4)ccc2O1,inactive
13,C[C@@H]1CN([C@H](C)CO)C(=O)Cc2cc(NC(=O)Nc3ccc(C(F)(F)F)cc3)ccc2O[C@@H]1CN(C)C(=O)Nc1cccc2ccccc12,inactive
14,CO[C@H]1CN(C)C(=O)c2ccc(NC(=O)Nc3ccc(Cl)cc3)cc2OC[C@@H](C)N(C(=O)Nc2c(C)noc2C)C[C@H]1C,inactive
15,C[C@H]1CCCCO[C@H](CN(C)CC2CCCCC2)[C@@H](C)CN([C@@H](C)CO)C(=O)c2cc(NC(=O)c3ccccc3)ccc2O1,inactive
16,C[C@@H]1CCCCO[C@@H](CN(C)C(=O)CCCN(C)C)[C@@H](C)CN([C@@H](C)CO)C(=O)c2cc(NC(=O)Nc3ccc(C(F)(F)F)cc3)ccc2O1,inactive
17,C[C@H](CO)N1C[C@H](C)[C@@H](CN(C)S(=O)(=O)c2ccc(Cl)cc2)OCc2cnnn2CCCC1=O,inactive
18,CN1C(=O)c2cc(NC(=O)C3CCC3)ccc2OC[C@H]2O[C@@H](CC(=O)NCCc3ccncc3)CC[C@@H]21,inactive
19,CC(C)C#Cc1cnc2c(c1)C(=O)N([C@@H](C)CO)C[C@@H](C)[C@@H](CN(C)S(=O)(=O)c1cn(C)cn1)O2,inactive
20,C[C@H](CO)N1C[C@H](C)[C@@H](CN(C)C(=O)Nc2cccc(Cl)c2Cl)OCc2ccccc2-c2c(n(C)c3ccccc23)C1=O,inactive

row,Compound,growth inhibition call
1,C[C@H]1CCCCO[C@@H](CN(C)Cc2ccc(C(=O)O)cc2)[C@@H](C)CN([C@@H](C)CO)C(=O)c2cc(NC(=O)Nc3ccccc3)ccc2O1,inactive
2,Cc1noc(C)c1S(=O)(=O)Nc1cccc2c1O[C@@H](CN(C)C(=O)Nc1ccccc1)[C@@H](C)CN([C@H](C)CO)C2=O,inactive
3,CC(C)NC(=O)Nc1cccc2c1O[C@@H](CN(C)Cc1ccc(-c3ccccc3)cc1)[C@@H](C)CN([C@H](C)CO)C2=O,inactive
4,COc1ccc(NC(=O)N(C)C[C@@H]2Oc3ncc(C#CC(C)C)cc3C(=O)N([C@@H](C)CO)C[C@@H]2C)cc1,inactive
5,C[C@@H]1CN([C@H](C)CO)S(=O)(=O)c2ccc(C#CCN(C)C)cc2O[C@@H]1CN(C)Cc1ccncc1,inactive
6,CC(C)(O/N=C(\C(=O)N[C@@H]1C(=O)N2C(C(=O)O)=C(C[n+]3ccccc3)CS[C@H]12)c1csc(N)n1)C(=O)O,inactive
7,CC(=O)Nc1nnc(S(N)(=O)=O)s1,inactive
8,CN(C)CC#Cc1ccc([C@@H]2[C@H](CO)N3CCCCN(C(=O)CN(C)C)C[C@@H]23)cc1,inactive
9,Nc1ccncc1N,inactive
10,C[C@@H]1CN([C@H](C)CO)C(=O)c2c(c3ccccc3n2C)-c2ccccc2CO[C@@H]1CN(C)C(=O)NC1CCCCC1,inactive
11,C[C@H]1CN([C@@H](C)CO)C(=O)c2cc(NC(=O)CCN3CCOCC3)ccc2O[C@H]1CN(C)Cc1ccccc1,inactive
12,C[C@@H]1CN([C@H](C)CO)C(=O)Cc2cc(NC(=O)Cc3ccccc3)ccc2O[C@H]1CN(C)S(=O)(=O)c1cn(C)cn1,inactive
13,Brc1c(NC2=NCCN2)ccc2nccnc12,inactive
14,CC(C)(C)C(=O)CC1(O)CCCCC1,inactive
15,O=C(O)c1cccc(-c2ccco2)c1,inactive
16,CCCN(C)C[C@@H]1OCCCC[C@@H](C)Oc2ccc(NC(=O)Cc3ccccc3)cc2C(=O)N([C@H](C)CO)C[C@@H]1C,inactive
17,C[C@H](CO)N1C[C@H](C)[C@H](CN(C)S(=O)(=O)c2cccc(C#N)c2)OCc2cnnn2CCCC1=O,inactive
18,COc1ccc(NC(=O)N(C)C[C@@H]2Oc3ccc(NS(=O)(=O)c4cn(C)cn4)cc3CC(=O)N([C@@H](C)CO)C[C@H]2C)cc1,inactive
19,CC(C)CC#Cc1ccc2c(c1)O[C@@H](CN(C)C(=O)c1cccnc1)[C@@H](C)CN([C@@H](C)CO)S2(=O)=O,inactive
